Part of at least one peptide drawing is inferred or uncertain, most often the ends. Non-standard residues stand in square brackets, D forms with d. Residues, ends and D or L forms follow the SMILES beside them. No end group written: not given here. pY = N[C@@H](Cc1ccc(OP(=O)(O)O)cc1)C(=O)O; Phg = N[C@H](C(=O)O)c1ccccc1
Tested on: CD1 mice
Assay: GLP-2 antagonist assessment by administration into mice (small bowel weight)
Assay type: in vivo
Settings: CD1 female mice, 2.5 μg peptide s.c. b.i.d. in PBS, 10 or 14 days, relative to vehicle only

Compound | % Decrease in Small Bowel Weight
CC[C@H](C)[C@H](NC(=O)[C@H](Cc1ccccc1)NC(=O)[C@H](CC(=O)O)NC(=O)[C@H](CCCNC(=N)N)NC(=O)[C@H](C)NC(=O)[C@H](C)NC(=O)[C@H](CC(C)C)NC(=O)[C@H](CC(N)=O)NC(=O)[C@H](CC(=O)O)NC(=O)[C@H](CC(C)C)NC(=O)[C@@H](NC(=O)[C@@H](NC(=O)[C@H](CC(N)=O)NC(=O)[C@H](CCSC)NC(=O)[C@H](CCC(=O)O)NC(=O)[C@H](CC(=O)O)NC(=O)[C@H](CO)NC(=O)[C@H](Cc1ccccc1)NC(=O)[C@H](CO)NC(=O)CNC(=O)[C@H](CC(=O)O)NC(=O)[C@H](Cc1ccc(OP(=O)(O)O)cc1)NC(=O)[C@@H](N)Cc1c[nH]cn1)[C@@H](C)O)[C@@H](C)CC)C(=O)N[C@@H](CC(N)=O)C(=O)N[C@@H](Cc1c[nH]c2ccccc12)C(=O)N[C@@H](CC(C)C)C(=O)N[C@H](C(=O)N[C@@H](CCC(N)=O)C(=O)N[C@H](C(=O)N[C@@H](CCCCN)C(=O)N[C@H](C(=O)N[C@H](C(=O)N[C@@H](CC(=O)O)C(=O)O)[C@@H](C)O)[C@@H](C)CC)[C@@H](C)O)[C@@H](C)CC [[PO3-Tyr^2]GLP-2] (H-H[pY]DGSFSDEMNTILDNLAARDFINWLIQTKITD-OH; N-terminus and C-terminus assumed) | 6%
CC[C@H](C)[C@H](NC(=O)[C@H](Cc1ccccc1)NC(=O)[C@H](CC(=O)O)NC(=O)[C@H](CCCNC(=N)N)NC(=O)[C@H](C)NC(=O)[C@H](C)NC(=O)[C@H](CC(C)C)NC(=O)[C@H](CC(N)=O)NC(=O)[C@H](CC(=O)O)NC(=O)[C@H](CC(C)C)NC(=O)[C@@H](NC(=O)[C@@H](NC(=O)[C@H](CC(N)=O)NC(=O)[C@H](CCSC)NC(=O)[C@H](CCC(=O)O)NC(=O)[C@H](CC(=O)O)NC(=O)[C@H](CO)NC(=O)[C@H](Cc1ccccc1)NC(=O)[C@H](CO)NC(=O)CNC(=O)[C@H](CC(=O)O)NC(=O)[C@@H](NC(=O)[C@@H](N)Cc1c[nH]cn1)c1ccccc1)[C@@H](C)O)[C@@H](C)CC)C(=O)N[C@@H](CC(N)=O)C(=O)N[C@@H](Cc1c[nH]c2ccccc12)C(=O)N[C@@H](CC(C)C)C(=O)N[C@H](C(=O)N[C@@H](CCC(N)=O)C(=O)N[C@H](C(=O)N[C@@H](CCCCN)C(=O)N[C@H](C(=O)N[C@H](C(=O)N[C@@H](CC(=O)O)C(=O)O)[C@@H](C)O)[C@@H](C)CC)[C@@H](C)O)[C@@H](C)CC [[Phg^2]GLP-2] (H-H[Phg]DGSFSDEMNTILDNLAARDFINWLIQTKITD-OH; N-terminus and C-terminus assumed) | 2%
HCDGSFSDEMNTILDNLAARDFINWLIQTKITD [[Cys^2]GLP-2] | 20%
HEDGSFSDEMNTILDNLAARDFINWLIQTKITD [[Glu^2]GLP-2] | 25%
HGDGSFSDEMNTILANLAARDFINWLIQTKITD [[Gly^2, Ala^15]GLP-2] | 14%
HGDGSFSDEMNTILDNLAARDAINWLIQTKITD [[Gly^2, Ala^22]GLP-2] | 8%
HGDGSFSDEMNTILDNLAARDFINWLIQAKITD [[Gly^2, Ala^29]GLP-2] | 19%
HGDGSFSDEMNTILDNLAARDFINWLIQTKIAD [[Gly^2, Ala^32]GLP-2] | 17%
HGDGSFSDEMNTILDNLAARDFINWLIQTKITA [[Gly^2, Ala^33]GLP-2] | 6%
HLDGSFSDEMNTILDNLAARDFINWLIQTKITD [[Leu^2]GLP-2] | 23%
HRDGSFSDEMNTILDNLAARDFINWLIQTKITD [[Arg^2]GLP-2] | 23%
HWDGSFSDEMNTILDNLAARDFINWLIQTKITD [[Trp^2]GLP-2] | 5%

Reference: patent US6489295B1, “Antagonists of intestinotrophic GLP-2 peptides” (1149336 Ontario Inc., priority 1996, dated 2002)
